Results reported in PubChem BioAssay (NCI).
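The compound was tested at five concentrations on cells cultured in 96-well plates, with a 48-hour exposure period. GI50 marks 50% less growth. Definition used: TGI = concentration required for complete inhibition of growth.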

System: NCI-H322M lung
Assay: NCI-60 cell line screen, 48 h

Row | Structure (SMILES) | GI50 [µM] | TGI [µM]
1 | O=C(N/N=C\c1ccc([N+](=O)[O-])cc1)c1ccc2nc(-c3ccc(Br)cc3)[nH]c2c1 | 5.39 | > 100
2 | CCc1cccc2c3c(sc12)C(c1ccc(OC)cc1)C(C#N)=C(/N=C/c1ccc(Cl)cc1)O3 (stereo not given) | 5.03 | > 100
3 | CCCCCCNC(=O)Oc1ccc(/C(=C(/C)c2ccccc2)c2ccc(OCCN3CCCCCC3)cc2)cc1 | 14.9 | 32.6
4 | CSc1ccc(/C(=N/N=C(N)N)c2ccc(Cl)cc2)cc1 | 0.894 | 13.2
5 | Nc1ncc(-c2ccc3ncnc(N4CCc5cc(F)c(F)cc54)c3c2)cn1 | 2.61 | > 100
